# Among all 390,000 compounds or so, about 4,700 (1.2%) were called active. About 4% were inconclusive and are not listed. The call rests on the fitted dose curve; in most records, active means well fitted inhibition curve with a large enough effect; inconclusive means small, poorly fitted or top-dose-only effect, or another doubt; inactive means no such curve, though single readings can be large or run the other way. This is a selection; strong and weak results do not stand in their true shares. Some structures have more than one record in an assay (separate samples or runs), and their calls can disagree. Where a SMILES comes first, the peptide text is derived from it. [ ]: non-standard residue; d: D form. The star is where a group is joined. ξ: configuration not given here. ξF = NC(Cc1ccccc1)C(=O)O; Cbz = O=C(OCc1ccccc1)*
# Biological target: DNA polymerase eta (Homo sapiens) (UniProt Q9Y253)
# Chain of UniProt Q9Y253 (Q9Y253 whole entry, looked up): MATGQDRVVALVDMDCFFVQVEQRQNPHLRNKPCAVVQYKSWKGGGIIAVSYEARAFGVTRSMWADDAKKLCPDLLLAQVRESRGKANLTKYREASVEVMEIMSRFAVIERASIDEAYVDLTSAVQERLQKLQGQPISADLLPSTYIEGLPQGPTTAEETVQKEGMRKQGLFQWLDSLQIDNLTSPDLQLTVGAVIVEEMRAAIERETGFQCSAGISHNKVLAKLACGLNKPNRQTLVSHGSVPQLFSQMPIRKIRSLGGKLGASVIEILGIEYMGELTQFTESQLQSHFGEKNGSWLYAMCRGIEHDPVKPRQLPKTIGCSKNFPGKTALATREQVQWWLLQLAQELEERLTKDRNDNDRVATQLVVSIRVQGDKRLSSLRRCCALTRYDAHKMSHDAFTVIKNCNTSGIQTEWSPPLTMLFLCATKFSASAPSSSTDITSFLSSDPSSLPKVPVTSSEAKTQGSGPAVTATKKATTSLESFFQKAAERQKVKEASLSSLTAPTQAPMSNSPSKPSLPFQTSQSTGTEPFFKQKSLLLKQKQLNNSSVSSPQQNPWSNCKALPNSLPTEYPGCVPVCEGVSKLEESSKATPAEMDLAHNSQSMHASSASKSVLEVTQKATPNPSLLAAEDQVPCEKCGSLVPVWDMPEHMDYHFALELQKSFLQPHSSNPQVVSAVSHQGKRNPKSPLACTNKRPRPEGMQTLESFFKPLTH
# Test: qHTS for Inhibitors of Polymerase Eta
# Conditions: recombinant Pol eta, fluorescent DNA replication assay; series mostly up to 114 µM; activity change, negative = inhibition: at the top concentration
# Description: The Y-family of DNA polymerases, such as Pol eta, are specifically involved in DNA repair. Pol eta copies undamaged DNA with a lower fidelity than other DNA-directed polymerases. However, it accurately replicates UV-damaged DNA; when thymine dimers are present, this polymerase inserts the complementary nucleotides in the newly synthesized DNA, thereby bypassing the lesion and suppressing the mutagenic effect of UV-induced DNA damage. […] Thus, while pol eta's (and most likely iota's) normal function is to protect humans against the deleterious consequences of DNA damage, under certain conditions they can have deleterious effects on human health. As a consequence, we propose to utilize a high throughput replication assay to identify small molecule inhibitors of pol eta. In a collaboration between the National Institute of Child Health & Human Development (NICHD) and NIH Chemical Genomics Center, a high-throughput, fluorescent screen was developed to screen the NIH Molecular Libraries Small Molecule Repository (MLSMR). This screen is used to identify inhibitors of pol eta. NIH Chemical Genomics Center [NCGC] NIH Molecular Libraries Probe Centers Network [MLPCN] MLPCN Grant: MH090825 Assay Submitter (PI): Roger Woodgate, NICHD)
# Three microliters of reagents (buffer in column 3 and 4 as negative control and 10 nM Pol eta in columns 1, 2, and 5-48) were dispensed into a 1,536-well black solid-bottomed plate. Compounds (23 nL) were transferred via Kalypsys pin tool equipped with 1536-pin array. The plates were then incubated for 15 min at room temperature, and 1 µL substrate (50 nM final concentration) was added to start the reaction and kinetically read twice at 0 min and 10 min on the Viewlux reader
# On the % scale 0 is the no-effect control and ±100 the full control effect; potency means the concentration at half of the fitted maximal effect.
SMILES,"activity change, negative = inhibition",Potency
COc1ccc(C)cc1NC(=O)c1oc2ccc(S(=O)(=O)N3CCC4(CC3)OCCO4)cc2c1C,inactive: 17.9%,–
Cc1nc2sc(C(c3ccc(Cl)cc3)N3CCN(C(=O)c4ccco4)CC3)c(O)n2n1 (configuration not stated),inactive: -8.34%,–
CCc1nnc(NC(=O)CSc2nnc(CNc3ccc(C)cc3)n2C)s1,inactive: 16.5%,–
CC(=O)Oc1ccc(-c2cc3ccc(OC(C)=O)cc3oc2=O)cc1,inactive: 31.2%,–
Cc1cc(Cl)c(O)c(-n2nc3ccccc3n2)c1,inactive: 25.6%,–
O=C(Cn1cnc2ccccc2c1=O)NCCC(=O)Nc1ccc(F)cc1,inactive: 3.73%,–
COc1ccccc1NCCC(=O)O,inactive: 31.3%,–
O=C(CCCN1C(=O)S/C(=C/C=C/c2ccccc2)C1=O)Nc1ccc(C(=O)O)cc1,–,active: 89.1 µM
COc1ccc(CNC(=O)CN(C)S(=O)(=O)c2ccc(Cl)cc2)cc1,inactive: 16.1%,–
CC(C)[C@H](NC(=O)OCc1ccccc1)C(=O)NC(C=O)Cc1ccccc1 (stereo partly drawn) (Cbz-Val-[ξF]-aldehyde),inactive: -13.3%,–
CC(C)NC[C@H](O)c1ccc(O)c(O)c1,–,inactive
C[C@@H](C(=O)Nc1ccc2ccccc2c1)[C@@H]1C[C@@]1(C)[C@@H](NC(=O)c1cnccn1)c1ccccc1,inactive: -13.3%,–
C=C(C)C(=O)Nc1cccc(C2=NOC3(C2)C[C@@H](C(N)=O)N(C(=O)c2ccc(Cl)cc2)C3)c1 (some centres not stated),–,active: 4.47 µM
CC(=O)c1ccc(-n2c(CCC(=O)O)ccc2-c2cccs2)cc1,inactive: -14.6%,–
CCOc1ccc(CNC(=O)Cn2nc(C)c3c(C)n(-c4ccc(C)cc4)nc3c2=O)cc1,inactive: -23.7%,–
O=C(C=C(O)c1ccc(Cl)cc1)C(=O)NNC(=O)C(O)(c1ccccc1)c1ccccc1,inactive: -24.6%,–
CC(C)(O)[C@H](O)COc1c2ccoc2cc2oc(=O)ccc12,inactive: 2.38%,–
COc1ccccc1CCNc1ncnc2c1nnn2C,inactive: 15.7%,–
Cc1nnc(SCC2=C(C(=O)O)N3C(=O)C(NC(=O)Cn4ncc(Cl)c4C)C3SC2)s1 (configuration not stated),–,active: 17.8 µM
COc1cc(C(=O)N/N=C/c2ccc3c(c2)c2ccccc2n3C)ccc1O,–,active: 15.8 µM
CCN1CC2([N+](=O)[O-])C=CC(=O)C([N+](=O)[O-])(C1)C2CC(=O)c1ccccc1 (configuration not stated),–,active: 25.1 µM
OCC[C@H]1C[C@H](O)[C@@H](O)[C@@]2(CCCc3ccccc3O2)O1,inactive: -22.3%,–
Nc1cc(N)nc(SCC(=O)N2CCN(S(=O)(=O)c3ccccc3)CC2)n1,inactive: 30.9%,–
O=Cc1[nH]c2ccccc2c1N(C(=O)CCl)c1ccccc1,–,active: 20 µM

SMILES,"activity change, negative = inhibition",Potency
COc1ccc(CN(C)CC(=O)Nc2ccc(Cl)cc2F)c(OC)c1,inactive: 31.5%,–
CCOC(=O)[C@@H]1[C@H]2COc3ccccc3[C@@H]2N2C(=O)N(c3ccc(C(F)(F)F)cc3)C(=O)[C@@]12C,inactive: -20.6%,–
OCCOCCN1CCN(C(c2ccccc2)c2ccc(Cl)cc2)CC1 (configuration not stated),inactive: -4.67%,–
[O-]c1c[n+](-c2ccc(-[n+]3cc([O-])on3)cc2)no1,–,active: 44.7 µM
CC1(OC(=O)c2cccs2)C(=O)C=C2C=C3CCCN3C=C2C1=O (configuration not stated),–,active: 22.4 µM
O=C(NCCn1cc(SCc2ccc(F)cc2)c2ccccc21)c1c(F)cccc1F,inactive: -22.9%,–
COc1ccccc1C(=O)Nc1c(C(=O)N(CCN(C)C)Cc2ccco2)oc2ccccc12,inactive: -12.5%,–
Cc1ccc2[nH]c3c(=O)n(CC(=O)NCc4ccco4)ncc3c2c1,inactive: -9.85%,–
CCOc1ccc(C(=O)Nc2cccc(-c3ccc4nncn4n3)c2)cc1,inactive: 33.2%,–
CCOC(=O)c1c(C)[nH]c(C(=O)COC(=O)C(C)N2C(=O)C3CCCCC3C2=O)c1C (configuration not stated),inactive: -7.1%,–
O=C(Cc1ccc([N+](=O)[O-])cc1)N/N=C/c1cccnc1,inactive: 21.9%,–
O=C(Cc1ccc(Br)cc1)N/N=C/c1ccc(-c2cccc(C(=O)O)c2)o1,–,active: 22.4 µM
CCOc1cc(CNS(=O)(=O)c2ccc3c(c2)CC(=O)N3C)cc(OCC)c1OCC,inactive: -3.27%,–
CN(C)S(=O)(=O)Nc1cccc(Br)c1,inactive: 30.3%,–
Cc1ccccc1NC(=O)c1ccc2c(O)c(S(=O)(=O)c3ccccc3)c(=O)[nH]c2c1,inactive: -10.2%,–
Cc1ccc(C(=O)OCC(=O)NCc2ccco2)s1,–,active: 22.4 µM
O=C1NC(=S)N/C1=C\c1cccc([N+](=O)[O-])c1,inactive: -1.7%,–
COC(=O)c1cc2c(cc1NC(=O)c1cnn(-c3ccc(C)cc3)c1-n1cccc1)OCO2,inactive: 23.7%,–
C=CCc1ccc(OCc2ccc(C(=O)O)o2)c(OC)c1,–,active: 28.2 µM
COC1=CC(=Cc2c(N)n3nc(CC(=O)N4CCOCC4)sc3nc2=O)C=C(OC)C1=O,–,active: 20 µM
CC(/C=C\c1cccnc1)=C/C(=O)O,inactive: -15.9%,–
CON=C(C(=O)NC1C(=O)N2C(C(=O)O)=C(CSc3nc(=O)c(=O)[nH]n3C)CSC12)c1csc(N)n1 (configuration not stated),–,active: 31.6 µM
CCC1C/C(=C\c2cccnc2)C(=O)/C(=C/c2cccnc2)C1 (configuration not stated),–,active: 11.2 µM

# From PubChem BioAssay AID588591 (National Center for Advancing Translational Sciences (NCATS), 2011)
